# Laboratory results reported in a collection of fitness landscapes (doi:10.1016/j.celrep.2020.107928).
# The full ranking holds about 81,000 sequences; the median of “one-hybrid fitness for binding parS DNA” is about -0.17, and the highest 2% start at about 0.51. This is one part of the list.
# B1: Caulobacter ParB omega fusion; a variant is named by its letters at X, in order, B8GW30 (parent)
# chain: MESVVVGEPGMSEGRRGLGRGLSALLGEVDAAPAQAPGEQLGGSREAPIEILQRNPDQPRRTFREEDLEDLSNSIREKGVLQPILVRPSPDTAGEYQIVAGERAWRAAQRAGLKTVPIMVRELDDLAVLEIGIIENVQRADLNVLEEALSYKVLMEKFERTQENIAQTIGKSXSHVANXMRLLXLPDEVQSYLVSGELTAXHARAIAAAADPVALAKQIIEGGLSVRETEALARKAPNLSAGKSKGGRPPRVKDTDTQALESDLSSVLGLDVSIDHRGSTGTLTITYATLEQLDDLCNRLTRGI
# Variants of: B1
# Experiment: one-hybrid fitness for binding parS DNA (scaled: cognate 1, non-cognate 0); higher = stronger binding
# Details: with parS DNA site
# Summary of the method: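 Bacterial one-hybrid selection in E. coli USO rpoZ- hisB- pyrF- with a HIS3 reporter carrying the site 19 bp from the promoter, screening Caulobacter ParB libraries with four specificity codons randomised (NNS). Cells grew 48 hours at 37°C on M9-minus-histidine plus 0.1 mM IPTG and 5 mM 3-AT. Plasmids before and after selection were Illumina-sequenced, three replicate libraries pooled, and variants under 10 reads dropped. Fitness is the log change in variant-to-wild-type read ratio, rescaled to cognate 1, non-cognate 0.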
row,Variant,one-hybrid fitness for binding parS DNA
1,ALGR,≤ 0.2
2,LVTI,≤ 0.2
3,VLES,≤ 0.2
4,YPTL,≤ 0.2
5,PVHP,≤ 0.2
6,LTAQ,≤ 0.2
7,VVTA,≤ 0.2
8,TAGL,≤ 0.2
9,PWKG,≤ 0.2
10,QARR,≤ 0.2
11,HKGM,≤ 0.2
12,ITSD,≤ 0.2
13,QYCS,≤ 0.2
14,NSPC,≤ 0.2
15,PCYT,≤ 0.2
16,NQRK,≤ 0.2
17,QCPK,≤ 0.2
18,NKMS,≤ 0.2
19,DSNY,≤ 0.2
20,QMFG,≤ 0.2
21,PIKN,≤ 0.2
22,RMAY,0.436
23,GSRP,≤ 0.2
24,ACNH,≤ 0.2
25,QYFF,≤ 0.2
26,SGRR,≤ 0.2

row,Variant,one-hybrid fitness for binding parS DNA
1,THTK,≤ 0.2
2,QLTL,≤ 0.2
3,IWTR,≤ 0.2
4,PLGG,≤ 0.2
5,LPDW,≤ 0.2
6,IPTP,≤ 0.2
7,PWFG,≤ 0.2
8,IAIR,≤ 0.2
9,VTKD,≤ 0.2
10,LIGR,≤ 0.2
11,VSNS,≤ 0.2
12,TNMH,≤ 0.2
13,PCAR,≤ 0.2
14,TLAS,≤ 0.2
15,PLYI,≤ 0.2
16,FTRF,≤ 0.2
17,PILK,≤ 0.2
18,VTAM,≤ 0.2
19,IISG,≤ 0.2
20,LAEG,≤ 0.2
21,SIHF,≤ 0.2
22,GSFE,≤ 0.2
23,ELAM,≤ 0.2
24,RAWQ,≤ 0.2
25,LMYI,≤ 0.2
26,SKSE,≤ 0.2

row,Variant,one-hybrid fitness for binding parS DNA
1,YWNN,≤ 0.2
2,TCMS,≤ 0.2
3,YPPF,≤ 0.2
4,DALF,≤ 0.2
5,LNVG,≤ 0.2
6,HWTL,≤ 0.2
7,HHRW,≤ 0.2
8,CTMT,≤ 0.2
9,VLRT,≤ 0.2
10,HHWV,≤ 0.2
11,VFNL,≤ 0.2
12,HRHA,≤ 0.2
13,WNAK,≤ 0.2
14,DVTV,≤ 0.2
15,DWSY,≤ 0.2
16,CFRF,≤ 0.2
17,SSQC,≤ 0.2
18,TVYG,≤ 0.2
19,GYQS,≤ 0.2
20,WIKW,≤ 0.2
21,VLWE,≤ 0.2
22,EKNS,≤ 0.2
23,IVCR,≤ 0.2
24,EVGP,≤ 0.2
25,SKES,≤ 0.2
26,EAGR,≤ 0.2

row,Variant,one-hybrid fitness for binding parS DNA
1,YKEV,≤ 0.2
2,CRFA,≤ 0.2
3,RNDY,0.256
4,ANLM,≤ 0.2
5,QHRP,≤ 0.2
6,MCFG,≤ 0.2
7,PGDR,≤ 0.2
8,YSNA,≤ 0.2
9,YRNE,≤ 0.2
10,LKHI,≤ 0.2
11,SCDF,≤ 0.2
12,EPFI,≤ 0.2
13,YALL,≤ 0.2
14,ILTH,≤ 0.2
15,RHDA,0.545
16,ADKP,0.287
17,SQFL,≤ 0.2
18,NGTN,≤ 0.2
19,YPIF,≤ 0.2
20,NPPI,≤ 0.2
21,PLRD,≤ 0.2
22,SFRS,≤ 0.2
23,LCCR,≤ 0.2
24,DEGG,≤ 0.2
25,RLDT,0.806
26,LSAV,≤ 0.2

row,Variant,one-hybrid fitness for binding parS DNA
1,PKWV,≤ 0.2
2,ELQR,≤ 0.2
3,VAHR,≤ 0.2
4,HYFT,≤ 0.2
5,HMRC,≤ 0.2
6,LQGF,≤ 0.2
7,RTKA,0.808
8,PHNI,≤ 0.2
9,VRCD,≤ 0.2
10,PNNG,≤ 0.2
11,LSTW,≤ 0.2
12,AYFG,≤ 0.2
13,QTGR,≤ 0.2
14,MVTE,≤ 0.2
15,PWHD,≤ 0.2
16,HYHF,≤ 0.2
17,CFHR,≤ 0.2
18,CSTS,≤ 0.2
19,TGDS,≤ 0.2
20,DQFS,≤ 0.2
21,RIVS,1.01
22,KNSG,≤ 0.2
23,RCEW,≤ 0.2
24,IHQR,≤ 0.2
25,EQRK,≤ 0.2
26,KLTY,≤ 0.2

row,Variant,one-hybrid fitness for binding parS DNA
1,IRKL,≤ 0.2
2,GFFS,≤ 0.2
3,IQAR,≤ 0.2
4,DVSW,≤ 0.2
5,YSSY,≤ 0.2
6,FRSS,≤ 0.2
7,HTQG,≤ 0.2
8,CPEM,≤ 0.2
9,RTCN,0.451
10,IEYS,≤ 0.2
11,RVQD,≤ 0.2
12,TRHA,≤ 0.2
13,SMKS,≤ 0.2
14,YAIC,≤ 0.2
15,RRWF,≤ 0.2
16,VRGY,≤ 0.2
17,RFFD,≤ 0.2
18,THSY,≤ 0.2
19,LTFM,≤ 0.2
20,ALMG,≤ 0.2
21,PDQH,≤ 0.2
22,PQNP,≤ 0.2
23,AATT,≤ 0.2
